No constants are given. Whether binding was seen depends on the method and setting. Binding seen in cells or lysates may run through a third protein. Some results given as binding are weak or reduced against the parent protein; the word gives no strength. Where a sequence is shown, tags or fusion partners need not be part of it.
T1: Atg9-PA (S. cerevisiae) (UniProt Q12142)
T1 sequence: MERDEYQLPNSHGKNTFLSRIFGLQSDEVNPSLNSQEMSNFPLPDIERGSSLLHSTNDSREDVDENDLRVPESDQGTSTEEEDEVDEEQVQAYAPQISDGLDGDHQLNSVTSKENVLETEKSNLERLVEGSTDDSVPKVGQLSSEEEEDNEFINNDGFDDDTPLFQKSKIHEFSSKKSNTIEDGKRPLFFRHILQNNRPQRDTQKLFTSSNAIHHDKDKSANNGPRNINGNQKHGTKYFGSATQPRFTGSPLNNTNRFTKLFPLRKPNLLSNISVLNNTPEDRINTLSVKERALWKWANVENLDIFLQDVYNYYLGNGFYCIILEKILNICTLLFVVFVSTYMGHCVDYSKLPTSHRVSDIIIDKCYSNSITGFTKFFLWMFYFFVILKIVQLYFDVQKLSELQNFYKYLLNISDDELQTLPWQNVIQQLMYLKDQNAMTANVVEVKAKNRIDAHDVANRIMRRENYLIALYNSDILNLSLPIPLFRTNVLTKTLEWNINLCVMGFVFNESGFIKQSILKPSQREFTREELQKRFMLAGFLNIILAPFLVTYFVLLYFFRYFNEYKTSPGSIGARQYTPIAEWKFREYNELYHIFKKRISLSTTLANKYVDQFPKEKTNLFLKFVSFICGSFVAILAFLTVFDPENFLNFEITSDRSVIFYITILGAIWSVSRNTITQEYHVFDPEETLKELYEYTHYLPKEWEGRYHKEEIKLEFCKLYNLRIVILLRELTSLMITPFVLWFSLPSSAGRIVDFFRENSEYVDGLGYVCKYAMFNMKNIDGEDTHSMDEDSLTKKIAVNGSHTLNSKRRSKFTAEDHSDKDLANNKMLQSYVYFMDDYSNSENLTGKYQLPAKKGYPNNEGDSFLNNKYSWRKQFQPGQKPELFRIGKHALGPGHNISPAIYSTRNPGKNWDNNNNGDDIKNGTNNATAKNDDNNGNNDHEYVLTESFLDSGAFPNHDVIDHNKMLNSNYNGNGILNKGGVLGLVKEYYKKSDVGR


Biological target: T1, Atg9-PA (S. cerevisiae)
Experiment: co-IP; overexpressed GFP-Atg11 co-precipitated by overexpressed Atg9-PA from yeast in growing conditions (SMD -ura -trp, log phase); washes at 4°C; blots probed with anti-GFP

Binder	binding
GFP-Atg11 DLL (protein, UniProt Q12527 1-1178) MADADEYSTAPTQQEITPLQTTATIINAISGECITTNVDFFVSLDKFKQFIARKWKIPPDQLLILLPYGNKLKPSMFKELLINRSFTLNDFYVYDRRLFSLVSKPTPTNLLTSKDSNPMNSPNSNDLTETLEYLIKNSHISQYQGSDTIMIKPMPSPLEDADVDLSRLNYHSVTSLLTTNLGWLSALEIDVHYFKSLIPDIIAHIKRIFDGLTVCSQYLKLYCFDVESLYNSNVQFLNQLVDNGMTSKWEKCFNDTLSKLTALEGDSLQKFINIESLLENEKSVKILNHSINGKLNKIKREIDENASFRDIITVNIDRLRQMFTPNESKFELEDQMAESFEVLVSEMRTRSRNVLDKEEEEFNSQEFLKSMNVMLEKDKKESVKTLFTISQALYSQIGELIDLKKSLQKHAVAILGNIAFTQMEILGIKRLLLNECNKDLELYKKYEVEFAQVEDLPLIYGLYLIEKYRRLSWFQQILSFISNFNQDLELFKQNELRTRNKWVKNFGSIATVFCEAALSSSDFKRANEYHSHTSPPNEDEEDENENSIANYRQDLVKVSQAIDNYMTQIKETDVSEPIIDLLSKTLFETKRFHIIYSNFKNNNNNSSNGNSISPEGSIALKSDDVVKGYKTRIKKLESLLHEFQYSDIGHWPQGVLNTHLKPFRGSATSINKKKFLGASVLLEPANISEVNIDSVSQANNHQIQELESNVDDLLHQLQLLKEENNRKSMQISEMGKKISDLEVEKTAYRETLTNLNQELARLTNEEQSHRTEIFTLNASFKKQLNDIISQDNEKIEKLTGDYDDVSKSRERLQMDLDESNKKHEQEVNLLKADIERLGKQIVTSEKSYAETNSSSMEKGEKFETIPLAEDPGRENQISAYTQTLQDRIFDIISTNIFILENIGLLLTFDNNNNIQIRRVKGLKKGTAQSNILDESTQMLDAHDNSLIKSPVFQKLKDEYELIKSVANGSEKDTQQSIFLGNITQLYDNKLYEVAVIRRFKDIETLAKKLTKENKIKRTLLERFQREKVTLRNFQIGDLALFLPTRENVNSVGSMSSSTSSLSSSFSSVDLSTPPPLDAMSIQSSPSVIHSNVINQASISGRDKNKLMRPWAAFTAFEESTRYFLKDEKGLTKGKEWFVGRIVTLEHFVADSPSNNPFRLPKGSVWFQVTAVVVSYQGV	binds
GFP-Atg11 IA3 (protein, UniProt Q12527 1-575; P01094 2-53; Q12527 628-1178) MADADEYSTAPTQQEITPLQTTATIINAISGECITTNVDFFVSLDKFKQFIARKWKIPPDQLLILLPYGNKLKPSMFKELLINRSFTLNDFYVYDRRLFSLVSKPTPTNLLTSKDSNPMNSPNSNDLTETLEYLIKNSHISQYQGSDTIMIKPMPSPLEDADVDLSRLNYHSVTSLLTTNLGWLSALEIDVHYFKSLIPDIIAHIKRIFDGLTVCSQYLKLYCFDVESLYNSNVQFLNQLVDNGMTSKWEKCFNDTLSKLTALEGDSLQKFINIESLLENEKSVKILNHSINGKLNKIKREIDENASFRDIITVNIDRLRQMFTPNESKFELEDQMAESFEVLVSEMRTRSRNVLDKEEEEFNSQEFLKSMNVMLEKDKKESVKTLFTISQALYSQIGELIDLKKSLQKHAVAILGNIAFTQMEILGIKRLLLNECNKDLELYKKYEVEFAQVEDLPLIYGLYLIEKYRRLSWFQQILSFISNFNQDLELFKQNELRTRNKWVKNFGSIATVFCEDLLSSSDFKRLNEYHSHTSPPNEDEEDENENSIANYRQDLVKVSQAIDNYMTQIKETDVSNTDQQKVSEIFQSSKEKLQGDAKVVSDAFKKMASQDKDGKTTDADESEKHNYGYKTRIKKLESLLHEFQYSDIGHWPQGVLNTHLKPFRGSATSINKKKFLGASVLLEPANISEVNIDSVSQANNHQIQELESNVDDLLHQLQLLKEENNRKSMQISEMGKKISDLEVEKTAYRETLTNLNQELARLTNEEQSHRTEIFTLNASFKKQLNDIISQDNEKIEKLTGDYDDVSKSRERLQMDLDESNKKHEQEVNLLKADIERLGKQIVTSEKSYAETNSSSMEKGEKFETIPLAEDPGRENQISAYTQTLQDRIFDIISTNIFILENIGLLLTFDNNNNIQIRRVKGLKKGTAQSNILDESTQMLDAHDNSLIKSPVFQKLKDEYELIKSVANGSEKDTQQSIFLGNITQLYDNKLYEVAVIRRFKDIETLAKKLTKENKIKRTLLERFQREKVTLRNFQIGDLALFLPTRENVNSVGSMSSSTSSLSSSFSSVDLSTPPPLDAMSIQSSPSVIHSNVINQASISGRDKNKLMRPWAAFTAFEESTRYFLKDEKGLTKGKEWFVGRIVTLEHFVADSPSNNPFRLPKGSVWFQVTAVVVSYQGV	binds

Now from value to binder:

binding	Binder
binds	GFP-Atg11 YDLL (protein, UniProt Q12527 1-1178) MADADEYSTAPTQQEITPLQTTATIINAISGECITTNVDFFVSLDKFKQFIARKWKIPPDQLLILLPYGNKLKPSMFKELLINRSFTLNDFYVYDRRLFSLVSKPTPTNLLTSKDSNPMNSPNSNDLTETLEYLIKNSHISQYQGSDTIMIKPMPSPLEDADVDLSRLNYHSVTSLLTTNLGWLSALEIDVHYFKSLIPDIIAHIKRIFDGLTVCSQYLKLYCFDVESLYNSNVQFLNQLVDNGMTSKWEKCFNDTLSKLTALEGDSLQKFINIESLLENEKSVKILNHSINGKLNKIKREIDENASFRDIITVNIDRLRQMFTPNESKFELEDQMAESFEVLVSEMRTRSRNVLDKEEEEFNSQEFLKSMNVMLEKDKKESVKTLFTISQALYSQIGELIDLKKSLQKHAVAILGNIAFTQMEILGIKRLLLNECNKDLELYKKYEVEFAQVEDLPLIYGLYLIEKARRLSWFQQILSFISNFNQDLELFKQNELRTRNKWVKNFGSIATVFCEAALSSSDFKRANEYHSHTSPPNEDEEDENENSIANYRQDLVKVSQAIDNYMTQIKETDVSEPIIDLLSKTLFETKRFHIIYSNFKNNNNNSSNGNSISPEGSIALKSDDVVKGYKTRIKKLESLLHEFQYSDIGHWPQGVLNTHLKPFRGSATSINKKKFLGASVLLEPANISEVNIDSVSQANNHQIQELESNVDDLLHQLQLLKEENNRKSMQISEMGKKISDLEVEKTAYRETLTNLNQELARLTNEEQSHRTEIFTLNASFKKQLNDIISQDNEKIEKLTGDYDDVSKSRERLQMDLDESNKKHEQEVNLLKADIERLGKQIVTSEKSYAETNSSSMEKGEKFETIPLAEDPGRENQISAYTQTLQDRIFDIISTNIFILENIGLLLTFDNNNNIQIRRVKGLKKGTAQSNILDESTQMLDAHDNSLIKSPVFQKLKDEYELIKSVANGSEKDTQQSIFLGNITQLYDNKLYEVAVIRRFKDIETLAKKLTKENKIKRTLLERFQREKVTLRNFQIGDLALFLPTRENVNSVGSMSSSTSSLSSSFSSVDLSTPPPLDAMSIQSSPSVIHSNVINQASISGRDKNKLMRPWAAFTAFEESTRYFLKDEKGLTKGKEWFVGRIVTLEHFVADSPSNNPFRLPKGSVWFQVTAVVVSYQGV
binds	GFP-Atg11 YDL (protein, UniProt Q12527 1-1178) MADADEYSTAPTQQEITPLQTTATIINAISGECITTNVDFFVSLDKFKQFIARKWKIPPDQLLILLPYGNKLKPSMFKELLINRSFTLNDFYVYDRRLFSLVSKPTPTNLLTSKDSNPMNSPNSNDLTETLEYLIKNSHISQYQGSDTIMIKPMPSPLEDADVDLSRLNYHSVTSLLTTNLGWLSALEIDVHYFKSLIPDIIAHIKRIFDGLTVCSQYLKLYCFDVESLYNSNVQFLNQLVDNGMTSKWEKCFNDTLSKLTALEGDSLQKFINIESLLENEKSVKILNHSINGKLNKIKREIDENASFRDIITVNIDRLRQMFTPNESKFELEDQMAESFEVLVSEMRTRSRNVLDKEEEEFNSQEFLKSMNVMLEKDKKESVKTLFTISQALYSQIGELIDLKKSLQKHAVAILGNIAFTQMEILGIKRLLLNECNKDLELYKKYEVEFAQVEDLPLIYGLYLIEKARRLSWFQQILSFISNFNQDLELFKQNELRTRNKWVKNFGSIATVFCEAALSSSDFKRLNEYHSHTSPPNEDEEDENENSIANYRQDLVKVSQAIDNYMTQIKETDVSEPIIDLLSKTLFETKRFHIIYSNFKNNNNNSSNGNSISPEGSIALKSDDVVKGYKTRIKKLESLLHEFQYSDIGHWPQGVLNTHLKPFRGSATSINKKKFLGASVLLEPANISEVNIDSVSQANNHQIQELESNVDDLLHQLQLLKEENNRKSMQISEMGKKISDLEVEKTAYRETLTNLNQELARLTNEEQSHRTEIFTLNASFKKQLNDIISQDNEKIEKLTGDYDDVSKSRERLQMDLDESNKKHEQEVNLLKADIERLGKQIVTSEKSYAETNSSSMEKGEKFETIPLAEDPGRENQISAYTQTLQDRIFDIISTNIFILENIGLLLTFDNNNNIQIRRVKGLKKGTAQSNILDESTQMLDAHDNSLIKSPVFQKLKDEYELIKSVANGSEKDTQQSIFLGNITQLYDNKLYEVAVIRRFKDIETLAKKLTKENKIKRTLLERFQREKVTLRNFQIGDLALFLPTRENVNSVGSMSSSTSSLSSSFSSVDLSTPPPLDAMSIQSSPSVIHSNVINQASISGRDKNKLMRPWAAFTAFEESTRYFLKDEKGLTKGKEWFVGRIVTLEHFVADSPSNNPFRLPKGSVWFQVTAVVVSYQGV
